Here are results for five molecules from article PMC11960969, “Mdga2 deficiency leads to an aberrant activation of BDNF/TrkB signaling that underlies autism-relevant synaptic and behavioral changes in mice” (PLOS Biology, 2025).

By UniProt entry, the sequences of proteins in these tests, tags left out. Residues count along the entry.
UniProt Q16620, residues 32-822: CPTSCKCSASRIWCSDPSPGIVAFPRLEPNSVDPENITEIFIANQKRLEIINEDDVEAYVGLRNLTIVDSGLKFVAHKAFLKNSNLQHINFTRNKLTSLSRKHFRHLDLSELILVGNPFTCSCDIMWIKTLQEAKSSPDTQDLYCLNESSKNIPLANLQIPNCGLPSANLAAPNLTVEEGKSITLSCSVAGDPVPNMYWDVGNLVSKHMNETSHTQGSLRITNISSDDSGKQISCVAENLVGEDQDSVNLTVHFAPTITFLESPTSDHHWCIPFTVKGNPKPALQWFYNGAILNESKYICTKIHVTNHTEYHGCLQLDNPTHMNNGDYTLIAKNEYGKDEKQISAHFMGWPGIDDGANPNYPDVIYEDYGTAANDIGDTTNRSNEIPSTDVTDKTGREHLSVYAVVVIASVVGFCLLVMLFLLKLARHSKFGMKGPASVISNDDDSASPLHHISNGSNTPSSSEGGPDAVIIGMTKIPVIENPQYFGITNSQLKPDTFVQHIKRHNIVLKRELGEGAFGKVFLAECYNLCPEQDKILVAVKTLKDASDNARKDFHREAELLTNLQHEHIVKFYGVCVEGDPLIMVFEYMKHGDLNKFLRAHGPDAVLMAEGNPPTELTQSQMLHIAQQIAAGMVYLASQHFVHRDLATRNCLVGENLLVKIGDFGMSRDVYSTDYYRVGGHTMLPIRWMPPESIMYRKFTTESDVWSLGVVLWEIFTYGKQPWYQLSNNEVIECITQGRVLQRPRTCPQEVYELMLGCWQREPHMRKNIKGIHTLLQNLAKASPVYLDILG
UniProt P15209, residues 32-821: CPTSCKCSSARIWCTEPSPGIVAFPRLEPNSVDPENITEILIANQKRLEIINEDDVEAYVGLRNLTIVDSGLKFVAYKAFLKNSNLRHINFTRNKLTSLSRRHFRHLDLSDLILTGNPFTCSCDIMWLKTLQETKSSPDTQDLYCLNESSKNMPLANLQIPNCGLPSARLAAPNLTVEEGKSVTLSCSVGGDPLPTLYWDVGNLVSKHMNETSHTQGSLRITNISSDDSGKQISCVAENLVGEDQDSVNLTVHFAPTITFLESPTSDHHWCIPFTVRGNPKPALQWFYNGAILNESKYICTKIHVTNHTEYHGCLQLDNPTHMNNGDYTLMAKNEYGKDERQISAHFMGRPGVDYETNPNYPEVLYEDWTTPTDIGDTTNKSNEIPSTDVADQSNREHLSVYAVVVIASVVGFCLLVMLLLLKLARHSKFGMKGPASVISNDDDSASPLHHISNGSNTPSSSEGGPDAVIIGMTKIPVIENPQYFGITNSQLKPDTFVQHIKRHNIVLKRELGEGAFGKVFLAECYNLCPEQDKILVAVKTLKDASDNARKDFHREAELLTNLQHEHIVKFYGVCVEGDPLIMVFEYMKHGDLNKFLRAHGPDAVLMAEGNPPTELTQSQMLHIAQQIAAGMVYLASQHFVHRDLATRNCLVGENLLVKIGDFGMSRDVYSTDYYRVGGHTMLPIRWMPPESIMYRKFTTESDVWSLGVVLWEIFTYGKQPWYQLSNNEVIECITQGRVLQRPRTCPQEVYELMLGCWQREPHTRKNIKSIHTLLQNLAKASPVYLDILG

Assay [1] concerns the target T1, MDGA2 (MAM domain containing glycosylphosphatidylinositol anchor 2), endogenous mouse (mouse (endogenous in mouse brain)) (UniProt P60755).
T1 sequence: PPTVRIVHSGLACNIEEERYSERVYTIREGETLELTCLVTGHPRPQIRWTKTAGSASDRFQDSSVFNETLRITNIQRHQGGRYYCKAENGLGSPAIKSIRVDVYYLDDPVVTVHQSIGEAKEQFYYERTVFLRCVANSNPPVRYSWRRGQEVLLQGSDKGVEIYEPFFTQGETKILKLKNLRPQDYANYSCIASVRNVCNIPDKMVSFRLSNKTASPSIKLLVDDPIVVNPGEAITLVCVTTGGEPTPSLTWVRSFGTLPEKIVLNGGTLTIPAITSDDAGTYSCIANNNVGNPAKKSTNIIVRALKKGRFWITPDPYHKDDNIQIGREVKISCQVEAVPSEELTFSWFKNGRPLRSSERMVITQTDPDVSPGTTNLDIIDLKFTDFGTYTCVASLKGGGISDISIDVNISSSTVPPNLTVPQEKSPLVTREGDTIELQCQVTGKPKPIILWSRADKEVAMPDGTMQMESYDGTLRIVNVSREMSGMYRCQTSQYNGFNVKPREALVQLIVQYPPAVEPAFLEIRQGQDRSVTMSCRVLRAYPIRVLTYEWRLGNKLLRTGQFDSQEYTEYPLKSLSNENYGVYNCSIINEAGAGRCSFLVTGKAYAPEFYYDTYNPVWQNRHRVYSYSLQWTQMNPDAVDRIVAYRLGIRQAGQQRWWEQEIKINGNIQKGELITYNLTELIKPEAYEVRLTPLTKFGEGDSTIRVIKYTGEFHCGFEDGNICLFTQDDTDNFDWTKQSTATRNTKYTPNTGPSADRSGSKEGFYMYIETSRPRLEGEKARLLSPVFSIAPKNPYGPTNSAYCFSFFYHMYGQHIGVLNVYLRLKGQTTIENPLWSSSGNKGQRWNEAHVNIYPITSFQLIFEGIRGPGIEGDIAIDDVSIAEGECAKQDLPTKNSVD
The experiment in a line: co-IP; WT mouse brain lysates, IP with an anti-MDGA2 antibody or control IgG, immunoblot.

The target in assay [2] is full-length human TrkB tagged with the N-terminal Venus fragment (TrkB-VN) (human) (UniProt Q16620). The experiment in a line: split reporter; BiFC with Venus halves in HeLa cells co-transfected for 24 h; confocal microscopy.
For assay [3], the target named is Flag-tagged full-length human TrkB (TrkB-Flag) (human) (UniProt Q16620). The experiment in a line: co-IP; HEK293T cells co-transfected with Flag-tagged TrkB constructs and GFP-tagged MDGA2 constructs; lysates IP with control IgG, anti-Flag or anti-GFP, immunoblot.
For assay [4] the target is unchanged. The experiment in a line: co-IP; mouse primary neurons transfected with GFP-tagged MDGA2, V930I or ΔMAM (text: co-transfected with TrkB); lysates IP with GFP or an anti-TrkB antibody, immunoblot.
The target of assay [5] is TrkB (tyrosine kinase B receptor), endogenous mouse (mouse (endogenous in mouse brain)) (UniProt P15209). The experiment in a line: co-IP; lysates of mouse primary neurons (Het, KO and WT littermates; WT neurons transfected with GFP, MDGA2-GFP or ΔMAM-GFP), IP with IgG or an anti-BDNF antibody, immunoblot for TrkB.
Assay [6] deals with Flag-tagged full-length human TrkB (TrkB-Flag) (human) (UniProt Q16620). Nature of the assay: co-IP; competition: P2 peptide (0.1 or 1 μM, 16 h) added to Mdga2+/- neurons transfected with TrkB-Flag; read-out is the co-IP of TrkB-Flag and BDNF; only the binder purified.
The target of assay [7] is TrkB (tyrosine kinase B receptor), endogenous mouse (mouse (endogenous in mouse brain)) (UniProt P15209). Nature of the assay: co-IP; competition in vivo: 1 μg MDGA2-P2 peptide injected into both hippocampi once per day for 1 week; read-out is the co-IP of TrkB with BDNF from hippocampal lysates; only the binder purified.

Results are given in words; binding and its absence hold for the method and conditions named. In cells and extracts the contact can be indirect. Some entries that bind do so weakly or less than the wild type. For some assays here: Tags and fused reporters may be left off the sequences shown.

B1: immature BDNF (ImBDNF), endogenous mouse (ligand, UniProt P21237 19-249)
chain: APMKEVNVHGQGNLAYPGVRTHGTLESVNGPRAGSRGLTTTSLADTFEHVIEELLDEDQKVRPNEENHKDADLYTSRVMLSSQVPLEPPLLFLLEEYKNYLDAANMSMRVRRHSDPARRGELSVCDSISEWVTAADKKTAVDMSGGTVTVLEKVPVSKGQLKQYFYETKCNPMGYTKEGCRGIDKRHWNSQCRTTQSYVRALTMDSKKRIGWRFIRIDTSCVCTLTIKRGR
Turning to B1, the binding result in assay [1] is recorded as “no binding”.

B2: MDGA2-ΔMAM tagged with the C-terminal Venus fragment (ΔMAM-VC) (domain or fragment, UniProt Q7Z553)
chain: PPTVRIVHSGLACNIEEERYSERVYTIREGETLELTCLVTGHPRPQIRWTKTAGSASDRFQDSSVFNETLRITNIQRHQGGRYYCKAENGLGSPAIKSIRVDVYYLDDPVVTVHQSIGEAKEQFYYERTVFLRCVANSNPPVRYSWRRGQEVLLQGSDKGVEIYEPFFTQGETKILKLKNLRPQDYANYSCIASVRNVCNIPDKMVSFRLSNKTASPSIKLLVDDPIVVNPGEAITLVCVTTGGEPAPSLTWVRSFGTLPEKTVLNGGTLTIPAITSDDAGTYSCIANNNVGNPAKKSTNIIVRALKKGRFWITPDPYHKDDNIQIGREVKISCQVEAVPSEELTFSWFKNGRPLRSSERMVITQTDPDVSPGTTNLDIIDLKFTDFGTYTCVASLKGGGISDISIDVNISSSTVPPNLTVPQEKSPLVTREGDTIELQCQVTGKPKPIILWSRADKEVAMPDGSMQMESYDGTLRIVNVSREMSGMYRCQTSQYNGFNVKPREALVQLIVQYPPAVEPAFLEIRQGQDRSVTMSCRVLRAYPIRVLTYEWRLGNKLLRTGQFDSQEYTEYAVKSLSNENYGVYNCSIINEAGAGRCSFLVTGKAYAPEFYYDTYNPVWQNRHRVYSYSLQWTQMNPDAVDRIVAYRLGIRQAGQQRWWEQEIKINGNIQKGELITYNLTELIKPEAYEVRLTPLTKFGEGDSTIRVIKYSAPVNPHLREQDLATKNSVD
In the case of B2, the binding result in assay [2] is “no binding”.

B3: GFP-tagged full-length human MDGA2 (MDGA2-GFP) (protein, UniProt Q7Z553 26-931)
chain: PPTVRIVHSGLACNIEEERYSERVYTIREGETLELTCLVTGHPRPQIRWTKTAGSASDRFQDSSVFNETLRITNIQRHQGGRYYCKAENGLGSPAIKSIRVDVYYLDDPVVTVHQSIGEAKEQFYYERTVFLRCVANSNPPVRYSWRRGQEVLLQGSDKGVEIYEPFFTQGETKILKLKNLRPQDYANYSCIASVRNVCNIPDKMVSFRLSNKTASPSIKLLVDDPIVVNPGEAITLVCVTTGGEPAPSLTWVRSFGTLPEKTVLNGGTLTIPAITSDDAGTYSCIANNNVGNPAKKSTNIIVRALKKGRFWITPDPYHKDDNIQIGREVKISCQVEAVPSEELTFSWFKNGRPLRSSERMVITQTDPDVSPGTTNLDIIDLKFTDFGTYTCVASLKGGGISDISIDVNISSSTVPPNLTVPQEKSPLVTREGDTIELQCQVTGKPKPIILWSRADKEVAMPDGSMQMESYDGTLRIVNVSREMSGMYRCQTSQYNGFNVKPREALVQLIVQYPPAVEPAFLEIRQGQDRSVTMSCRVLRAYPIRVLTYEWRLGNKLLRTGQFDSQEYTEYAVKSLSNENYGVYNCSIINEAGAGRCSFLVTGKAYAPEFYYDTYNPVWQNRHRVYSYSLQWTQMNPDAVDRIVAYRLGIRQAGQQRWWEQEIKINGNIQKGELITYNLTELIKPEAYEVRLTPLTKFGEGDSTIRVIKYSAPVNPHLREFHCGFEDGNICLFTQDDTDNFDWTKQSTATRNTKYTPNTGPNADRSGSKEGFYMYIETSRPRLEGEKARLLSPVFSIAPKNPYGPTNTAYCFSFFYHMYGQHIGVLNVYLRLKGQTTIENPLWSSSGNKGQRWNEAHVNIYPITSFQLIFEGIRGPGIEGDIAIDDVSIAEGECAKQDLATKNSVD
On to B3, for which the binding result in assay [3], in assay [4] and in assay [5] was “binds” in each case.

B4: full-length MDGA2 tagged with the C-terminal Venus fragment (MDGA2-VC) (protein, UniProt Q7Z553 26-931)
chain: B3 chain
Consider B4, for which the binding entry in assay [2] is “binds”. With KARLLSPVFSIAPKNPYGPTNT [MDGA2-P2 peptide (aa 812-833), label not stated], the binding entry in assay [6] and in assay [7] was “binds” in each case.
